The whole screen tested about 310,000 compounds, of which about 2,200 (0.71%) showed an effect of 50% or more. The effect is printed as a negative number. The list shows a part of the results.
Target: human ether-à-go-go-related gene (hERG) potassium channel (human, UniProt Q12809)
Experiment: primary screen, population patch clamp on CHO cells stably expressing hERG

Sequence of human ether-à-go-go-related gene (hERG) potassium channel (Q12809 whole entry, looked up): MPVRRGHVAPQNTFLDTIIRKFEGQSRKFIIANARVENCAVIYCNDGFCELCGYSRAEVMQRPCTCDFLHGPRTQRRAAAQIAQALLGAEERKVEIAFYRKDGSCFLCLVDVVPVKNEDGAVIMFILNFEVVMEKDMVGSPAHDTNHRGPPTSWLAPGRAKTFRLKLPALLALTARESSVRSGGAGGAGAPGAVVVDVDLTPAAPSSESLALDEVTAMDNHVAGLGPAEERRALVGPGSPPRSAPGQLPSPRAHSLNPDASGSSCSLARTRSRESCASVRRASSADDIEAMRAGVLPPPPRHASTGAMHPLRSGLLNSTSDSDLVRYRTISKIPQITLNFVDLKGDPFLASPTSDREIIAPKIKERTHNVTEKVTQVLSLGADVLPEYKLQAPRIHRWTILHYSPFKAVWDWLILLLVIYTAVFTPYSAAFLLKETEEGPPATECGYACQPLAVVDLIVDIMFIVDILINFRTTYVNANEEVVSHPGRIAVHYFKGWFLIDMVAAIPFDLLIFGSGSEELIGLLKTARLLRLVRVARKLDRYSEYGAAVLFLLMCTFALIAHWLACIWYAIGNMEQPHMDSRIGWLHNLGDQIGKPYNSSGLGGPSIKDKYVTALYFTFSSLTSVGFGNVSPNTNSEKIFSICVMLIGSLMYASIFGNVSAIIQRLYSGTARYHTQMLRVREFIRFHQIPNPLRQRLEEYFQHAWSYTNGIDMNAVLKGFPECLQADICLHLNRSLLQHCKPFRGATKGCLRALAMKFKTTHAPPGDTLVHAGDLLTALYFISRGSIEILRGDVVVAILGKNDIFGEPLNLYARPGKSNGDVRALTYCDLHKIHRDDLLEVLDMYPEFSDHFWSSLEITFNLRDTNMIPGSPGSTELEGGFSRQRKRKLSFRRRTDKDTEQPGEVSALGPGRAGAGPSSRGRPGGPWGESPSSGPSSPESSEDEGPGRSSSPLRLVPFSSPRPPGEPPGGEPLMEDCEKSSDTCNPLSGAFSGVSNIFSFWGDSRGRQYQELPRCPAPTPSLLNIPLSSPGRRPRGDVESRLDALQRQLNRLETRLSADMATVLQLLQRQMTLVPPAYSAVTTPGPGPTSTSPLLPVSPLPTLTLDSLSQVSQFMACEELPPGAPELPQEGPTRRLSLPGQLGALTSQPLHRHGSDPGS

SMILES	hERG current change (%, negative = inhibition) at 1uM
COc1cc(CNCCc2ccc(S(N)(=O)=O)cc2)ccc1OCC(=O)N1CCCCC1.Cl	19.1%
COc1cc(C(=O)OCC(=O)Nc2cccc(S(=O)(=O)N3CCCC3)c2)ccc1OCC(C)C	3.04%
c1ccc(Cn2c(Nn3cnnc3)nc3ccccc32)cc1	-6.13%
O=C1NNC(=O)C1c1ccccc1	13.7%
OCCOc1ccc(CN2CCN(CCCc3ccccc3)C(CCO)C2)cc1 (stereo not shown)	-19.8%
O=C(NCc1ccccc1)c1ccc(Cn2cc(C(F)(F)F)ccc2=O)cc1	-6.19%
Cc1ccc(NC(=O)C2CCCN2C(=O)Oc2ccccc2)c(C)c1 (stereo not shown)	5.98%
O=C(COC(=O)c1ccccc1C(=O)c1ccccc1)Nc1cccc([N+](=O)[O-])c1	7.97%
Cc1nc(CN2CCN(C(=O)NC3(c4ccccc4)CC3)CC2)cs1	5.07%
C=CCNC(=O)c1onc(CSc2ccccn2)c1C(=O)NCC=C	6.66%
S=C(NCc1cccs1)Nc1ccccc1	2.52%
CN1CCCN(C(=O)c2ccc(Cl)c(S(=O)(=O)N(C)c3ccccc3)c2)CC1.Cl	12%
O=C(N=C1SC2CS(=O)(=O)CC2N1CCc1ccc(F)cc1)C1CCCCC1 (stereo not shown)	8.34%
CN(C)CCOCCOc1ccccc1-c1ccccc1.O=C(O)C(=O)O	-6.79%
CCO.COc1cc(C2C(C#N)=C(N)N(N(C)C)C3=C2C(=O)CC(C)(C)C3)ccc1O (stereo not shown)	11.4%
O=Nc1c(-c2ccccc2)cc2ccccn12	-1.34%
CCN(CC)c1nc2c(c(=O)[nH]c(=O)n2C)n1Cc1ccccc1Cl	14%
CC(C)Sc1nnc2n(CCc3ccccc3)c(=O)c3c4c(sc3n12)COC(C)(C)C4	3.92%
CN1C(=O)/C(=C\c2ccncc2)SC1=Nc1ccccc1	7.79%
CC(=O)c1cc2c(cc1NS(=O)(=O)c1ccccc1F)OCO2	2.36%
CCOc1ccc(-c2ccc(SCC(=O)NC3CCCCC3)nn2)cc1	17.9%
CCOc1ccc(C(=O)N2CCN(c3ccccn3)CC2)cc1	10.1%
Cc1ccc(NC2=CC(=O)CCC2)cc1C	5.54%

SMILES	hERG current change (%, negative = inhibition) at 1uM
COc1ccc(/C=N/Nc2nc3ccccc3[nH]2)cc1OC	4.83%
COc1ccc(NC(=O)c2nc(-n3nc(C)cc3C)ccc2Cl)cc1Cl	9.27%
Cc1ccc(NC(=O)N2CCC(NC(=O)C(C)(C)C)CC2)cc1	7.65%
COc1cc(C)nc(Oc2ccc(OCCOc3ccc(C)cc3)nn2)n1	2.57%
COCCN(CCOC)c1ncc(Cl)c(C(=O)c2c(C)cc3ccccn23)n1	-4.84%
CCN(CC)C(=S)SCC(=O)Nc1ccc(S(N)(=O)=O)cc1	13.7%
COc1cc(CNCc2cc(OC)ccc2OC)cc(OC)c1.O=C(O)C(=O)O	13.3%
Cc1ccc(C)c(C(=O)CCC(=O)N2CCN(c3ncccn3)CC2)c1	14.1%
Cc1ccccc1OCC(=O)N(Cc1cccs1)C1CCS(=O)(=O)C1 (stereo not shown)	-14.9%
Cc1cc(=O)[nH]c(N=N/C(=N/Nc2ccccc2C)c2ccccc2)n1	2.06%
CC(C)(C)c1ccc(CSc2nnc(-c3ccccc3NC(=O)c3ccccc3)o2)cc1	6.08%
O=C(Nc1ccccc1)C1CCCN1/C=C/C(=O)C(F)(F)F (stereo not shown)	2.92%
O=C(CSc1nnc(-c2ccccc2)n1Cc1ccccc1)N1CCCC1	12%
Cc1cccc(/C=N/N(CCO)C2=NS(=O)(=O)c3ccccc32)c1	-2.07%
CCn1c(CCCNC(=O)c2ccco2)nc2ccccc21	6.64%
CCCCOc1ccc(-c2ncc(N)cn2)cc1	15%
O=C1C=C(N2CCOCC2)CO1	21.7%
COc1ccc(C)cc1NC(=O)CCC(=O)Nc1ccc2nc(N3CCN(C)CC3)cc(C)c2c1	-3.63%
COc1ccc(CNC(=O)CN(C(=O)c2cc3sccc3n2C)C2CCCC2)cc1	5.58%
Cc1ccc2[nH]c(C)c(CC(=O)O)c2c1	29.7%
CCOC(=O)c1sc(NC(=O)CCN2C(=O)C3CCCCC3C2=O)cc1C (stereo not shown)	6.23%
COc1ccc(CNC(=O)CCNS(=O)(=O)c2cc(Br)cnc2N)cc1	13.8%
CCOC(=O)C1=C(C)N=c2s/c(=C/c3cccc([N+](=O)[O-])c3O)c(=O)n2C1c1ccc(OC)cc1OC (stereo not shown)	17.6%

SMILES	hERG current change (%, negative = inhibition) at 1uM
C#CCNC(=O)C1=C[C@@H](C2CCCCC2)C[C@@H](OCc2ccc(CO)cc2)O1	11.2%
O=C(Nc1cccc(F)c1)Nc1ccnn1C1CCN(C(=O)CCN2CCCO2)CC1	-11.4%
O=C(O)c1ccc(Nc2cnc3ccccc3n2)cc1	9.11%
N#Cc1ccc(C23CC4CC(CC(C4)C2)C3)[nH]c1=O	6.36%
COc1cc2ccccc2cc1C(=O)Nc1ccc(N2CCN(C)CC2)cc1	6.86%
Cc1ccc(C(=O)N2CCCC2)cc1S(=O)(=O)Nc1cccc(C)c1C	8.05%
O=C(NCc1cccnc1)C1CCN(S(=O)(=O)N2CCOCC2)CC1	3.6%
Cc1ccc(NC(=O)C[n+]2ccccc2)cc1[N+](=O)[O-].[Cl-]	6.44%
CN1/C(=C\C=N\O)C(C)(C)c2ccccc21	14.7%
COc1cc2nc(NC(=O)c3ccco3)sc(=O)c2cc1OC	6.25%
COc1ccccc1NC(=O)CSc1nnc(-c2ccco2)n1Cc1ccco1	-11.9%
C=CCSc1nnc2nc3[nH]c4c(C)cccc4c3nn12	13.9%
COC(=O)c1ccc(COc2ccc(/C=C(\C#N)c3nc4ccccc4[nH]3)cc2OC)o1	16.2%
O=C(COC(=O)C1CCC1)Nc1cc(S(=O)(=O)N2CCCCC2)ccc1Cl	6.48%
O=C(c1cccn(Cc2ccc(Cl)c(Cl)c2)c1=O)N1CCOCC1	-7.6%
CCN1CCN(C(=O)C2CC(c3ccc(F)cc3)=NO2)CC1 (stereo not shown)	5.31%
CN1C(C(=O)Nc2ccccn2)=C(O)c2ccccc2S1(=O)=O	4%
O=C(CS(=O)(=O)c1ccc2ccccc2c1)N1CCCCCC1	4.5%
COc1cccc(C(=O)Nc2nnc(SCC(=O)NC3CC3)s2)c1	15.6%
CN(C(=O)CCN1C(=O)c2ccccc2C1=O)C1CCCCC1	5.67%
Cc1cc(Cl)ccc1OC(C)C(=O)Nc1ccc(S(=O)(=O)Nc2cnc3ccccc3n2)cc1 (stereo not shown)	8.79%
CC(C)(C)c1nnc(NC(=O)CCS(=O)(=O)Cc2ccccc2)s1	14.6%
COc1cccc(Nc2ccccc2C(=O)O)c1	12.5%

SMILES	hERG current change (%, negative = inhibition) at 1uM
CCOc1cc(S(=O)(=O)N(CC)CC)c(OCC)cc1-n1cnnn1	-6.53%
COc1cccc(CNC(=O)N[C@@H](CC(C)C)C(=O)O)c1	20.8%
CNc1ccc(C(=O)N2CCN(S(=O)(=O)c3ccc4c(c3)OCCCO4)CC2)cc1[N+](=O)[O-]	8.92%
Cc1[nH]n(-c2nc(-c3ccccc3F)cc(=O)[nH]2)c(=O)c1CCO	8.28%
NC(=O)N/N=C/c1coc2ccc3ccccc3c2c1=O	11.8%
CCc1c(C)nc(SCC(=O)Nc2ccc(Br)cc2)[nH]c1=O	8.89%
O=C1CCC(C(=O)N2CCCCO2)CN1CCc1ccccc1 (stereo not shown)	3.92%
Cc1nc2cc(C(F)(F)F)ccc2n1C1CCN(CC(=O)N2CCOCC2)CC1	-8.69%
C=CCCC(=O)N1CCC(n2nccc2NC(=O)c2ccccc2C)CC1	-5.21%
O=C(O)C1C2C=CC(C2)C1C(=O)NCc1cccnc1 (stereo not shown)	-9.13%
COc1ccc(Cl)cc1C(=O)Nc1nc(C)cc(C)n1	15.7%
Cc1ccc(/C=C2\SC(=S)N(c3cccnc3)C2=O)o1	9.21%
S=C(N/N=C/c1ccc(Cl)cc1)N1CCOCC1	6.46%
COC(=O)c1ccc(CSc2n[nH]c(C)n2)o1	11.7%
Cc1c(/C=N/NC(=O)COc2ccccc2[N+](=O)[O-])c2ccccc2n1C	-2.69%
Cc1ccc(C)n1CCN1CCN(C(=O)CC#N)CC1	8.04%
Cc1ccc(C)c(NC(=O)CSc2nc3nc(-c4cccs4)cc(C(F)(F)F)c3c(=O)[nH]2)c1	4.93%
COc1ccc(N2C(S)=C(C#N)C(=O)NC2c2ccco2)cc1 (stereo not shown)	8.67%
O=C1CC(c2ccccc2)=Nc2ccccc2N1Cc1ccccc1	6.72%
Cc1cc(NC(=O)c2ccccc2C)ccc1NC(=O)c1ccccc1Cl	11.1%
CCOC(=O)c1ccc(CSc2ncn[nH]2)o1	13.8%
COCCn1c(SCC(=O)Nc2ccc(OC)c(S(N)(=O)=O)c2)nc2ccccc2c1=O	10.3%

— article PMC4336329 (PLoS ONE, 2015)
